The target of data set [1] is hERG channel (Homo sapiens (Human), UniProt Q12809). The data set is described as follows: hERG channel assay (whole cell patch clamp). A general note: Block of hERG is tested as a sign of cardiac risk.
Data set [2] is described as follows: MTT assay for HCV replicon reporter cell lines (cell toxicity). The note with it: human. A general note: Tetrazolium dyes change colour on reduction, which living cells bring about.
Data set [3] deals with HCV genotype 2a infectious clone. As to the kind of experiment: HCV genotype 2a infectious clone assay (Renilla luciferase). It is filed as cell-based. The note with it: for activity at 5 µM: Hepatitis C virus, read-out: 2a % activity @ 5 μM, % replication activity of control remaining at 5 μM test compound; for 2a % activity @ 5 μM: % replication activity of control remaining at 5 μM test compound.

For data set [4], the system named is Huh7.5 cells. The data set is classed as cell-based. The following applies: human, 3 days.

From patent US8975247B2, “Methods and compositions of treating a flaviviridae family viral infection” (priority 2009, dated 2015) come the findings set out here.

Like-named read-outs stand apart in the source and are kept apart here. Some results are limits rather than exact numbers.

hERG channel, sequence (Q12809 whole entry): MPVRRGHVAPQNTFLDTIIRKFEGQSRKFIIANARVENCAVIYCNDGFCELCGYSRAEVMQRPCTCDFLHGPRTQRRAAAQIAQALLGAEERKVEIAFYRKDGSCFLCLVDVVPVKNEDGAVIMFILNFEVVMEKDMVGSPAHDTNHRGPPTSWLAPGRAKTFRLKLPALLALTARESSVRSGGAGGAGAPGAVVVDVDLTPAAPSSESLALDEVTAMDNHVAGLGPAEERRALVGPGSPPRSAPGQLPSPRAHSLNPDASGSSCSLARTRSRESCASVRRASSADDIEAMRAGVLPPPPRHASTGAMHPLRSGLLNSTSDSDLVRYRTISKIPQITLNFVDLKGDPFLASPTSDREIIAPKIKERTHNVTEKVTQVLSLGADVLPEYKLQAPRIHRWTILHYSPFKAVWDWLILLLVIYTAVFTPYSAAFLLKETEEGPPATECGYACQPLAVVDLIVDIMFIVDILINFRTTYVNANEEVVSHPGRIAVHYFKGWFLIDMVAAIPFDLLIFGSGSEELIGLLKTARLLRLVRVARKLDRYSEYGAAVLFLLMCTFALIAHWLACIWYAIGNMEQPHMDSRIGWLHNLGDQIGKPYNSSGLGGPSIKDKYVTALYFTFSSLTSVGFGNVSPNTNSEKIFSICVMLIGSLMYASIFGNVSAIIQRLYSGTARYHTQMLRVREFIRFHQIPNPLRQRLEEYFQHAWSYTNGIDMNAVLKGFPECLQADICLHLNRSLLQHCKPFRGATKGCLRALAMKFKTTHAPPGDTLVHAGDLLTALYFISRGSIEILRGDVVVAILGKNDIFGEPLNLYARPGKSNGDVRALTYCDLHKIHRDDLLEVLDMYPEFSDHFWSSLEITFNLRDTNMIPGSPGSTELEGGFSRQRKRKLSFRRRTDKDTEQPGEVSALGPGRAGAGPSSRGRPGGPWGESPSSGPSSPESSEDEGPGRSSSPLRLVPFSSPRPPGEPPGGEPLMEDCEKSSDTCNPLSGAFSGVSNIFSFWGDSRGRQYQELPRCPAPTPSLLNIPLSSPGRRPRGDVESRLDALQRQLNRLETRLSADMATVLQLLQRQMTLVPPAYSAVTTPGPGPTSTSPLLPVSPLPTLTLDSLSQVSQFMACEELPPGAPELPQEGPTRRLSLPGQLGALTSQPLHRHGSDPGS

The IC50 is the midpoint of a concentration-inhibition curve. For orientation: EC50 means the concentration that produces a half-maximal response. Lower therefore signals a more potent agent. In the case of `Cc1cc2nc(CC3CCNCC3)n(Cc3ccc(Cl)cc3)c2cc1C` [EBP467], in data set [1], 1.1 µM corresponded to half-maximal inhibition (IC50). Also, the EC50 at 48 h in data set [2] was greater than 25 µM.

With `Cc1ccc2nc(CN3CCCC3)n(Cc3ccc(Cl)cc3)c2c1` [EBP425], the activity at 5 µM in data set [3] came to 90%. This molecule also gave an IC50 in data set [1] of 0.65 µM. Moreover, in data set [4], the “2a Cell Viability @ 5 μM” value is recorded as 100, 100% and the “2a Cell Viability @ 10 μM” value is recorded as 100, 100%.

With `Cc1cc2nc(C(C)Cc3ccncc3)n(Cc3ccc(Cl)cc3)c2cc1C` (stereo not shown) [EBP461], the IC50 turned out to be 8.8 µM in data set [1] and 8.8 µM in data set [1] (read-out: hERG IC50, CHO cell line expressing hERG). Besides, in data set [2], the EC50 at 48 h was greater than 25 µM.

As for `Cc1ccc2c(c1)nc(CN1CCC[C@@H]1C)n2Cc1ccc(Cl)cc1` [EBP315], the activity at 5 µM in data set [3] turned out to be 39%. The IC50 in data set [1] is less than 1 µM. Further, in data set [4], the “2a Cell Viability @ 5 μM” value is given as 86% and the “2a Cell Viability @ 10 μM” value was 81%.

For the molecule `Cc1cc2nc(/C=C/c3ccco3)n(Cc3ccc(Cl)cc3)c2cc1C` [EBP376], in data set [3], the activity at 5 µM amounted to 76%. Besides, the IC50 in data set [1] is greater than 10 µM. Besides, in data set [4], the “2a Cell Viability @ 5 μM” value is listed as 105% and the “2a Cell Viability @ 10 μM” value is reported as 98%.

For `CN1CCC(/C=C/c2nc3cc(-c4ccco4)ccc3n2Cc2ccc(Cl)cc2)C1` (stereo not shown) [EBP801], it took 23 µM to reach a half-maximal effect in data set [2] (EC50 at 48 h).

In data set [2], `Cc1cc2nc(/C=C/c3ccccn3)n(Cc3ccc(Cl)cc3)c2cc1C` [EBP375] showed an EC50 at 48 h greater than 25 µM.

In data set [2], `Cc1cc2nc(CCC3CCNC3)n(Cc3ccc(Cl)cc3)c2cc1C` (stereo not shown) [EBP463] gave an EC50 at 48 h greater than 25 µM.

As to `O=c1ccc(-c2nc3cc(Cl)c(Cl)cc3n2Cc2ccc(Cl)c(Cl)c2)c[nH]1` [EBP106], in data set [3], the activity at 5 µM turned out to be 50%. In data set [1], half-maximal inhibition (IC50) required 5 µM. Further, in data set [4], the “2a Cell Viability @ 5 μM” value turned out to be 93% and the “2a Cell Viability @ 10 μM” value was determined as 83%.

In data set [2], `Cc1cc2nc(/C=C/C3CCCN(S(C)(=O)=O)C3)n(Cc3ccc(Cl)cc3)c2cc1C` (stereo not shown) [EBP550] showed an EC50 at 48 h greater than 25 µM.

Turning to `OCc1nc2ccccc2n1Cc1ccc(Cl)cc1` [EBP143], in data set [3], the activity at 5 µM amounted to 85%. Moreover, in data set [1], the IC50 is greater than 30 µM. In addition, in data set [4], the “2a Cell Viability @ 5 μM” value was >100, >100% and the “2a Cell Viability @ 10 μM” value is reported as >100, >100%.

As for `COc1ccc2nc(CN3CCC[C@H]3CO)n(Cc3ccc(Cl)cc3)c2c1` [EBP484], in data set [3], the activity at 5 µM came to 81%. For the same molecule, in data set [1], the IC50 came to 5 µM. Besides, in data set [4], the “2a Cell Viability @ 5 μM” value came out at 87% and the “2a Cell Viability @ 10 μM” value turned out to be 83%.

With `Clc1ccc(Cn2c(/C=C/C3CCN(CCCC4CCCCC4)C3)nc3cc(Br)ccc32)cc1` (stereo not shown) [EBP936], the EC50 at 48 h in data set [2] is 9.9 µM. In other words, the single-digit micromolar range.

As for `Cc1cc2nc(/C=C/C3CCCN3C)n(Cc3ccc(Cl)cc3)c2cc1C` (stereo not shown) [EBP470], the EC50 at 48 h in data set [2] worked out at 9.2 µM.

Regarding `C/C(=C\c1cccnc1)c1nc2cc(C)c(C)cc2n1Cc1ccc(Cl)cc1` [EBP462], the activity at 5 µM in data set [3] turned out to be 45%. In data set [1], the IC50 was greater than 10 µM. Also, in data set [4], the “2a Cell Viability @ 5 μM” value came out at 95% and the “2a Cell Viability @ 10 μM” value is reported as 91%.

For the molecule `Cc1cc2nc(/C=C/C3CCCN(C)C3)n(Cc3ccc(Cl)cc3)c2cc1C` (stereo not shown) [EBP549], the EC50 at 48 h in data set [2] is greater than 25 µM.

`COc1ccc(Cn2cnc3c(NS(C)(=O)=O)c(C)c(C)cc32)cc1` [EBP103]: the “2a % activity @ 5 μM” value in data set [3] is listed as 35%. Moreover, the IC50 in data set [1] was greater than 30 µM. Besides, in data set [4], the “2a Cell Viability @ 5 μM” value is 100, 100% and the “2a Cell Viability @ 10 μM” value was 100, 100%.

In data set [2], `Cc1cc2nc(CCC3CCCN(C)C3)n(Cc3ccc(Cl)cc3)c2cc1C` (stereo not shown) [EBP558] showed an EC50 at 48 h greater than 25 µM.

In turn, `Cc1cc2nc(CCc3ccncc3)n(Cc3ccc(Cl)cc3)c2cc1C` [EBP417] displayed an EC50 at 48 h in data set [2] greater than 25 µM.

Turning to `Cc1cc2ncn(Cc3ccc(Cl)cc3)c2cc1C` [EBP003], in data set [3], the “2a % activity @ 5 μM” value is 50%. For the same molecule, the midpoint of inhibition in data set [1], the IC50, lay at 7 µM. Also, in data set [4], the “2a Cell Viability @ 5 μM” value was found to be 85% and the “2a Cell Viability @ 10 μM” value turned out to be 100%.

`Cc1cc2nc(CC3CCNC(C)C3)n(Cc3ccc(Cl)cc3)c2cc1C` (stereo not shown) [EBP881] had an IC50 in data set [1] of 0.58 µM.

Molecule `Cc1cc2nc(CCC3CCCN3C)n(Cc3ccc(Cl)cc3)c2cc1C` (stereo not shown) [EBP480] registered an EC50 at 48 h in data set [2] greater than 25 µM.

Take `Cc1cc2nc(CCC3CCCN3)n(Cc3ccc(Cl)cc3)c2cc1C` (stereo not shown) [EBP418]: the EC50 at 48 h in data set [2] is greater than 25 µM.

On to `Clc1ccc(Cn2c(CN3CCCC3)nc3ccccc32)cc1` [EBP001], for which the activity at 5 µM in data set [3] was 70%. The molecule further gave an IC50 in data set [1] of less than 1 µM. Further, in data set [4], the “2a Cell Viability @ 5 μM” value came out at 100% and the “2a Cell Viability @ 10 μM” value stood at 90%.

Consider `C/C(=C\C1CCCNC1)c1nc2cc(C)c(C)cc2n1Cc1ccc(Cl)cc1` (stereo not shown) [EBP797], for which the EC50 at 48 h in data set [2] was greater than 25 µM.

On to `Cc1cc2nc(CC3CCCCC3)n(Cc3ccc(Cl)cc3)c2cc1C` [EBP468], for which the IC50 in data set [1] is greater than 10 µM. Further, in data set [2], the EC50 at 48 h is greater than 25 µM.

In the case of `Cc1cc2nc(COC3CCCC3)n(Cc3ccc(Cl)cc3)c2cc1C` [EBP325], the activity at 5 µM in data set [3] amounted to 49%. This molecule also displayed an IC50 in data set [1] greater than 10 µM. In data set [4], the “2a Cell Viability @ 5 μM” value is >100, >100% and the “2a Cell Viability @ 10 μM” value is given as >100, >100%.

Molecule `Cc1cc2nc(/C=C/C3CCNC3)n(Cc3ccc(Cl)cc3)c2cc1C` (stereo not shown) [EBP372] displayed an IC50 in data set [1] of 1.6 µM. The molecule further gave an EC50 at 48 h in data set [2] greater than 25 µM.

The molecule `C/C(=C\C1CCCN1)c1nc2cc(C)c(C)cc2n1Cc1ccc(Cl)cc1` (stereo not shown) [EBP800] had an EC50 at 48 h in data set [2] greater than 25 µM.

As for `OC[C@@H]1CCCN1Cc1nc2ccccc2n1Cc1ccc(Cl)cc1` [EBP163], the activity at 5 µM in data set [3] turned out to be 71%. This molecule registered an IC50 in data set [1] of less than 1 µM. Besides, in data set [4], the “2a Cell Viability @ 5 μM” value is given as >100, >100% and the “2a Cell Viability @ 10 μM” value was >100, >100%.

For `Cc1cc2nc(CC3CCCNC3)n(Cc3ccc(Cl)cc3)c2cc1C` (stereo not shown) [EBP660], in data set [2], the EC50 at 48 h is greater than 25 µM.

`Cc1cc2nc(C(C)CC3CCCN3)n(Cc3ccc(Cl)cc3)c2cc1C` (stereo not shown) [EBP799] displayed an EC50 at 48 h in data set [2] greater than 25 µM.
